{"source": "PubChem BioAssay AID1346428", "about": "(National Center for Advancing Translational Sciences (NCATS), 2018)", "note": "Several values for one entry are separate records, joined by “and”; a condition that tells them apart may be missing. Equal values may be shown once. Screen size: about 48,000 compounds; about 1,200 (2.5%) were called active. Not shown: some 2% with an inconclusive outcome.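 How the source made its calls: active means activation of at least 60% and not above a set upper limit (about 1 call in 100 departs from these limits); inconclusive means activation of 40% to 60%, or above that upper limit; inactive means activation under 40%.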 Some of the results follow.", "data": [{"biological_target": "Probable G-protein coupled receptor 32 (Homo sapiens) (UniProt O75388)", "sequence (O75388 whole entry, looked up)": "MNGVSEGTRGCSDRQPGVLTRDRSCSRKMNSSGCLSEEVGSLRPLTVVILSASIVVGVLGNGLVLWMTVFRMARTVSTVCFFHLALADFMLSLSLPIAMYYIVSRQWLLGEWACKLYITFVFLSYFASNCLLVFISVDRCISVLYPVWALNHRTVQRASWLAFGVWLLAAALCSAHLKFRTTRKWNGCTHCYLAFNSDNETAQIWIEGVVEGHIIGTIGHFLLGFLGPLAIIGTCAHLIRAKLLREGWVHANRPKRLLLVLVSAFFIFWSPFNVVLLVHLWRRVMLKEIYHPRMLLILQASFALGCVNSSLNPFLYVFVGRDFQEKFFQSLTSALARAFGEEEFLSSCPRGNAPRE", "experiment": "qHTS for Agonists of Human Resolvin D1 Receptor DRV1; further: 0% is about no effect", "conditions": "CHO-K1 GPR32 beta-arrestin PathHunter luminescence, 90 min; at 76.9 µM; stronger effect = higher value; zero percent set by DMSO-only wells", "outline": "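Engineered CHO-K1 line co-expressing GPR32-ProLink and EA-beta-arrestin. Compound treatment lasted 90 min at 37 °C. Luminescence was recorded after 1 h with substrate at ambient temperature, relative to DMSO basal wells.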", "values": [{"smiles": "Cc1ccc(/C=C/c2onc(C)c2S(=O)(=O)N2CCC(C(=O)N3CCC(N(C)C(C)C)CC3)CC2)cc1", "activation": "inactive: -26.7%"}, {"smiles": "Cc1ccc(C)c(CN2CCCN(Cc3ccc(F)cc3)S2(=O)=O)c1", "activation": "inactive: -21.6%"}, {"smiles": "O=C(Nc1cccc(Cl)c1)c1cnc2sc(N3CCCC3)nn2c1=O", "activation": "inactive: -16.6%"}, {"smiles": "CN1C(=O)Cc2cc(S(=O)(=O)N3CCN(c4ccccc4F)CC3)ccc21", "activation": "inactive: -11.6%"}, {"smiles": "Cc1ccc(-c2noc(C(C)NS(=O)(=O)c3ccc(C)cc3)n2)cc1", "note": "(stereo not given)", "activation": "inactive: -4.04%"}, {"smiles": "COc1ccc(CNC(=O)Cc2c(C)c3cc4c(C)coc4c(C)c3oc2=O)cc1", "activation": "inactive: -7.96%"}, {"smiles": "Cc1nc(-n2nc(C)c(Cc3ccccc3Cl)c2C)sc1C(=O)Nc1ccccc1F", "activation": "inactive: 5.41%"}, {"smiles": "CC(C)c1ccc(C2=CC(c3ccc(C(C)C)cc3)n3nnnc3N2)cc1", "note": "(stereo not given)", "activation": "inactive: -33.4%"}, {"smiles": "Cc1ccc2nc3c(cc(C(=O)NCC4CCCO4)c(=N)n3C(C)C)c(=O)n2c1", "note": "(stereo not given)", "activation": "inactive: -2.51%"}, {"smiles": "CC(=O)c1ccc(S(=O)(=O)N2CCn3cccc3C2c2ccc(C)cc2)cc1", "note": "(stereo not given)", "activation": "inactive: -14.7%"}, {"smiles": "CCOC(=O)Cn1c(=O)n(CC2CCCO2)c2nc(-c3ccc(C)cc3)nc(C(N)=O)c21", "note": "(stereo not given)", "activation": "inactive: -1.43%"}, {"smiles": "CN1C(=O)CC[C@H]1c1cccnc1", "activation": "inactive: 28.3% and inactive: 3.74%"}, {"smiles": "COc1ccc(Cl)cc1NC(=O)Cc1ccc(NC(=O)N2CCCCc3ccccc32)cc1", "activation": "inactive: 3.59%"}, {"smiles": "COc1ccccc1NC(=O)C(=O)NCC(c1ccc2c(c1)OCO2)N1CCOCC1", "note": "(stereo not given)", "activation": "inactive: 8.35%"}, {"smiles": "Cc1ccccc1CNC(=O)c1cnc2sc(N3CCOCC3)nn2c1=O", "activation": "inactive: -6.31%"}, {"smiles": "Cc1ccc(NC(=O)CN(C)S(=O)(=O)c2ccc3c(c2)n(C)c(=O)c(=O)n3C)cc1C", "activation": "inactive: -5.47%"}, {"smiles": "Cc1ccc(-c2nc3c4ccccc4n(CC(=O)N4CCN(c5ccccc5F)CC4)c(=O)n3n2)cc1", "activation": "inactive: 5.46%"}, {"smiles": "Cc1nc(SC(C)C(=O)Nc2ccccc2C)cc(-c2ccccc2)n1", "note": "(stereo not given)", "activation": "inactive: -18.5%"}, {"smiles": "COc1ccc(CNC(=O)c2cc(-c3ccc(OC)cc3)on2)cc1", "activation": "inactive: 0.708%"}, {"smiles": "Cc1ccc(-n2nnnc2CNC(=O)C(C)(C)C)cc1C", "activation": "inactive: -6.75%"}, {"smiles": "CCOc1ccc(CCNC(=O)Cn2nc(C)n3c(cc4occc43)c2=O)cc1OCC", "activation": "inactive: -44.6%"}, {"smiles": "Cc1ccccc1C(=O)c1cccn1CC(=O)NCc1ccccc1", "activation": "inactive: -21.7%"}, {"smiles": "Cc1ccc(C)c(OCCn2c(-c3ccc(Cl)cc3)nc3ccccc3c2=O)c1C", "activation": "inactive: 4.24%"}, {"smiles": "CCn1c2ccccc2c2nnc(SCC(=O)O)nc21", "activation": "inactive: -9.49%"}, {"smiles": "CCOC(=O)c1ccccc1O", "activation": "inactive: 7.48%"}, {"smiles": "COc1ccc(CNC(=O)CSc2nc(-c3ccc(OC)cc3)cc(C(F)(F)F)n2)cc1", "activation": "inactive: -8.61%"}, {"smiles": "CC(C)Oc1ccc(CNC(=O)c2cc3ccccn3n2)cc1", "activation": "inactive: 33.6%"}, {"smiles": "CC(=O)Nc1ccc(S(=O)(=O)N2CCC(n3c(C(F)(F)F)nc4cccnc43)CC2)cc1", "activation": "inactive: 12.4%"}, {"smiles": "COc1cccc(-c2cc(C(=O)Nc3cc(Cl)ccc3O)on2)c1", "activation": "inactive: -20.6%"}, {"smiles": "Cc1ccc(CCNC(=O)CCCn2nc(C)c3c(C)n(-c4ccccc4)nc3c2=O)cc1", "activation": "inactive: 13.7%"}, {"smiles": "COC(=O)c1ccc(NC(=O)CCS(=O)(=O)c2ccc(Br)cc2)cc1", "activation": "inactive: -9.15%"}, {"smiles": "CC(=O)c1cc2c(cc1N/C(=N/S(=O)(=O)c1ccc(C)cc1)c1ccccc1)OCO2", "activation": "inactive: -37.3%"}, {"smiles": "Cc1cc(C)c(NC(=O)Cn2c(=O)n(CC(=O)NCc3ccccc3Cl)c(=O)c3sccc32)c(C)c1", "activation": "inactive: -4.67%"}, {"smiles": "COC(=O)C(NC(=O)CC(C)C)(Nc1nc2c(s1)CCCC2)C(F)(F)F", "note": "(stereo not given)", "activation": "inactive: -14.5%"}, {"smiles": "CCOC(=O)c1c(NC(=O)/C=C/c2ccc(OCC)cc2)sc(C)c1C", "activation": "inactive: 8.88%"}, {"smiles": "CCOc1ccc(CNCc2c(C(=O)O)n(Cc3ccccc3F)c3cc(OC)ccc23)cc1", "activation": "inactive: -10.5%"}, {"smiles": "CCc1cnc2c(c1SCC(=O)N1CCCCC1)c(=O)n(C)c(=O)n2C", "activation": "inactive: -5.25%"}, {"smiles": "CCCCOc1ccc(C(=O)NCCS(=O)(=O)N2CCN(c3ccc(F)cc3)CC2)cc1", "activation": "inactive: -9.03%"}, {"smiles": "O=C(CSc1nc2ccccc2nc1Cc1ccccc1)NCc1ccccc1Cl", "activation": "inactive: -1.01%"}, {"smiles": "COc1ccc(NC(=O)CSc2nc(-c3cccs3)cc(C(F)(F)F)n2)cc1OC", "activation": "inactive: 21.7%"}, {"smiles": "CCC(=O)N1CCc2cc(Br)cc(S(=O)(=O)N3CCC(C(=O)Nc4ccc(OC)cc4)CC3)c21", "activation": "inactive: -7.73%"}, {"smiles": "COc1ccc(C(=O)NC2(C(F)(F)F)C(=O)NC(C)=C2C#N)cc1OC", "note": "(stereo not given)", "activation": "inactive: -2.1%"}, {"smiles": "COc1ccc(-c2cc(C(=O)O)n(Cc3ccccc3)n2)cc1", "activation": "inactive: -12%"}, {"smiles": "COc1ccc(CN(C(=O)COc2ccccc2OC)C2CCS(=O)(=O)C2)cc1", "note": "(stereo not given)", "activation": "inactive: 2.25%"}, {"smiles": "CCCCN(CC)CCCNC(=O)c1sc2nc(C)cc(C)c2c1-n1cccc1", "activation": "inactive: -3.77%"}, {"smiles": "CCc1ccc(NC(=O)c2ccc3c(O)c(S(=O)(=O)c4ccc(Cl)cc4)c(=O)[nH]c3c2)cc1", "activation": "inactive: -3.58%"}, {"smiles": "Cc1cccc(OC(C)C(=O)Nc2ncn[nH]2)c1", "note": "(stereo not given)", "activation": "inactive: 8.4%"}, {"smiles": "Cc1ccc(S(=O)(=O)N(CC(O)Cn2c3ccccc3c3ccccc32)c2cccc(C(N)=O)c2)cc1", "note": "(stereo not given)", "activation": "active: 85.6%"}, {"smiles": "Cc1ccc(C)c(NC(=O)CN2C(=O)CCc3ccccc32)c1", "activation": "inactive: -1.77%"}, {"smiles": "Cc1cccc2nc(-c3ccco3)c(Nc3ccc4c(c3)OCO4)n12", "activation": "inactive: -12%"}, {"smiles": "CCOC(=O)C1CCCN(S(=O)(=O)c2ccc(F)c(C(=O)Nc3ccc(F)c(F)c3)c2)C1", "note": "(stereo not given)", "activation": "inactive: -19%"}, {"smiles": "CS(=O)(=O)OCCCCOS(C)(=O)=O", "activation": "inactive: -17.2%"}, {"smiles": "CCc1nn2c(=O)cc(COC(=O)c3cccc(NC(=O)c4ccccc4Cl)c3)nc2s1", "activation": "inactive: -10.8%"}, {"smiles": "CCc1ccc2c(c1)c(=O)c(S(=O)(=O)c1ccc(F)cc1)cn2CC(=O)Nc1ccc(C)cc1C", "activation": "inactive: -4.62%"}, {"smiles": "Cc1ccc(CNC(=O)C2CCCN(S(=O)(=O)c3cccc4nsnc34)C2)cc1", "note": "(stereo not given)", "activation": "inactive: -3.37%"}, {"smiles": "Cc1ccc2c(c1)C(c1ccc(F)cc1)N(C(=O)COc1ccc(Cl)cc1Cl)CC(=O)N2", "note": "(stereo not given)", "activation": "inactive: -31.6%"}, {"smiles": "O=C(CSc1c2c(nc3ccc(Cl)cc13)CCCC2)N1CCN(c2cccc(Cl)c2)CC1", "activation": "inactive: -31.5%"}, {"smiles": "COc1ccc(CNC(=O)c2cnc3sc(N4CCCC4)nn3c2=O)cc1OC", "activation": "inactive: 6.88%"}, {"smiles": "Cc1cccc(NC(=O)c2ccc(N(Cc3ccccc3)S(C)(=O)=O)cc2)c1", "activation": "inactive: 45.2%"}, {"smiles": "CCN(CCCNC(=O)c1cc2c(=O)n(C)c3ccccc3c2s1)Cc1ccccc1", "activation": "inactive: 4.81%"}, {"smiles": "Cc1cc2ncn(CCCCOc3ccccc3)c2cc1C", "activation": "inactive: -52.1%"}, {"smiles": "CCOC(=O)c1cccc(NC(=O)CN2C(=O)c3ccccc3Sc3ncccc32)c1", "activation": "active: 72%"}, {"smiles": "COc1cc(-c2nnn(CC(=O)Nc3ccc(OC(F)(F)F)cc3)n2)cc(OC)c1OC", "activation": "inactive: 25.7%"}, {"smiles": "CCOC(=O)c1c(C)[nH]c(CCC(=O)Nc2cc(C)ccc2OC)c1C", "activation": "inactive: -25%"}, {"smiles": "CC1CCC(NC(=O)c2ccc3c(c2)N(Cc2ccccc2)C(=O)c2ccccc2S3=O)CC1", "note": "(stereo not given)", "activation": "inactive: -15.1%"}, {"smiles": "Cc1ccc(C(=O)NCc2ccc(N(C)C)cc2)cc1NC(=O)c1nsc2ccccc12", "activation": "inactive: -32.5%"}, {"smiles": "COc1cc(NC(=O)CC2C(=O)N(c3ccc(Cl)cc3)C(=O)N2Cc2cccs2)cc(OC)c1", "note": "(stereo not given)", "activation": "inactive: -17.7%"}, {"smiles": "CN1C(C(=O)Nc2ccc(F)cc2F)=CC(c2ccco2)=NS1(=O)=O", "activation": "inactive: -13.7%"}, {"smiles": "O=C(CSCc1ccccc1Cl)N1CCN(c2ccc(F)cc2)CC1", "activation": "inactive: -24%"}, {"smiles": "Cc1nnc(NCc2ccccc2)c2c1nnn2Cc1ccccc1Cl", "activation": "inactive: -22.3%"}, {"smiles": "COc1ccccc1CNC(=O)C1CCCN(S(=O)(=O)c2ccc3c(c2)CCCN3C(C)=O)C1", "note": "(stereo not given)", "activation": "inactive: -8.97%"}, {"smiles": "O=C(Cn1ncc2c1-c1ccccc1OC2)N1CCN(c2ccccc2F)CC1", "activation": "active: 92.1%"}, {"smiles": "Cc1cccn2c(=O)c(C(=O)NCCCN3CCCCC3C)c(O)nc12", "note": "(stereo not given)", "activation": "inactive: 1.49%"}, {"smiles": "Cc1cc2oc(C(=O)Nc3c(C(=O)Nc4ccccc4)oc4ccccc34)cc(=O)c2cc1C", "activation": "inactive: 1.6%"}, {"smiles": "Cc1cccc(C)c1NC(=O)c1oc2ccc3c(c2c1C)C(=O)CC(C)(C)O3", "activation": "inactive: 9.19%"}, {"smiles": "CCc1ccccc1NC(=O)Cn1c(=O)n(Cc2ccc3c(c2)OCO3)c(=O)c2ccc(C(=O)NC3CCCCC3)cc21", "activation": "inactive: -22.7%"}, {"smiles": "Cc1ccccc1-c1nc(CS(=O)(=O)CC(=O)NCC(C)c2ccccc2)c(C)o1", "note": "(stereo not given)", "activation": "active: 70%"}, {"smiles": "CCc1ccc(OCC(=O)Nc2cc3oc4ccccc4c3cc2OC)cc1", "activation": "inactive: 37.4%"}, {"smiles": "COc1cc(OC)c(NC(=O)C2CCCN(c3ncnc4c3nc3n4CCCCC3)C2)cc1Cl", "note": "(stereo not given)", "activation": "inactive: -10.1%"}, {"smiles": "O=C(COc1ccccc1Cl)NCC1(N2CCOCC2)CCCCC1", "activation": "inactive: -26.7%"}, {"smiles": "Cc1c(NC(=O)c2cccnc2)c(=O)n(-c2ccccc2)n1C", "activation": "inactive: -20.9%"}, {"smiles": "Cc1cccc(OCCn2c(-c3ccc(Cl)cc3)nc3ccccc3c2=O)c1", "activation": "inactive: 16.4%"}, {"smiles": "CCCc1nn2c(=O)cc(COC(=O)c3cccc(NC(=O)COc4ccccc4C)c3)nc2s1", "activation": "inactive: 0.442%"}, {"smiles": "O=C(NCCc1ccccc1)c1cnc2sc(N3CCCC3)nn2c1=O", "activation": "inactive: -3.71%"}, {"smiles": "CCN1CCN(CCCNC(=O)c2cc3c(=O)n(C)c4ccccc4c3s2)CC1", "activation": "inactive: 20.9%"}]}]}
